Test results reported in PubChem BioAssay AID1347417 (National Center for Advancing Translational Sciences (NCATS), 2020).
The campaign covered roughly 120,000 compounds. About 5,300 (4.4%) were called active. Inconclusive means that the source gave no clear call. Such entries were picked first, then a sample of the others. Calls come from the whole dose curve; as a rule, active = well fitted inhibition curve with a large enough effect; inconclusive = small, poorly fitted or top-dose-only effect; inactive = no such curve, though single readings can be large or run the other way. Potencies of inconclusive entries are doubtful fits and often do not repeat.

experiment: qHTS Primary assay for Inhibitors of Plasmodium falciparum Dd2 growth in vitro; note: nearly all actives have a fitted effect of over 65% in size;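 for activity, negative = inhibition: plate controls were DMSO vehicle for no effect and reference drug for full effect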; conditions: P. falciparum Dd2 growth, SYBR Green, 72 h; activity, negative = inhibition: at 28.9 µM (top of the series) unless noted; series mostly up to 28.9 µM
In short: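 Readout: SYBR Green fluorescence, 485 nm excitation, 535 nm emission, after ~16 h lysis at 37C. Before that, Dd2-infected red cells (2.5% hematocrit) grew 72 h with compound, 29 uM top final concentration.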
Potency is the fitted concentration of half-maximal effect; tags give direction and shape of the fitted curve.

SMILES | Potency | activity, negative = inhibition | outcome
CC(C)NC(=O)NC[C@H]1O[C@@H](CC(=O)N2CCc3ccccc32)[C@H](O)[C@@H]1O | inconclusive: 31.6 µM [inhibitor, single point] | – | –
COc1ccc(C(=O)N2C[C@@H]3C[C@H](C2)c2c(-c4cccs4)ccc(=O)n2C3)cc1 | – | inactive: -9.28% [at 44.1 µM] | –
COC(=O)c1ccc(NC(=O)c2nc(-c3ccc(Cl)cc3)n3c2CCCCC3)cc1 | inconclusive: 11.2 µM [inhibitor, partial curve] | – | –
CCCCNC(=O)C1CCCN(C2CCN(Cc3ccncc3)CC2)C1 (stereo not drawn) | – | inactive: -27.9% | –
CCN(CCCNC(=O)c1nn(-c2ccc(OC)cc2)c(=O)c2c1c1ccccc1n2C)c1ccccc1 | inconclusive: 11.2 µM [inhibitor, single point] | – | –
Cc1ccc2nc(CO[C@H]3CN(Cc4ccccn4)C[C@H]3F)[nH]c2c1 | – | inactive: -0.642% [at 44.1 µM] | –
Cc1ccc(S(=O)(=O)N2CCC(CCC(=O)NC3CC3)CC2)cc1 | inconclusive: 17.8 µM [inhibitor, single point] | – | –
COc1cc2c(cc1-c1c(-c3ccccc3)ncn1CCCO)CCC2 | active: 12.6 µM | – | –
CC(C)c1ccc(C(C)NC(=O)CN2CCCc3nc(-c4ccccc4)ncc3C2=O)cc1 (stereo not drawn) | – | – | inactive
Cc1c(Cl)cccc1-n1ncc(C(=O)Nc2ccc(Br)cc2F)c1C1CCNCC1 | inconclusive: 10 µM [inhibitor, single point] | – | –
CCC(=O)N1CCN(c2nc3c(s2)CC(C(=O)Nc2ccc(OC)c(F)c2)CC3)CC1 (stereo not drawn) | – | inactive: -28.9% | –
COCC1CN(C2CCC2)CC12CCN(Cc1scnc1C)CC2 (stereo not drawn) | inconclusive: 11.2 µM [inhibitor, single point] | – | –
O=C(Cn1cccc1-c1nc(-c2ccccc2)no1)Nc1cccc(Cl)c1 | active: 2.51 µM | – | –
O=C(CSc1ncc2c(n1)-c1ccccc1N(Cc1ccc(F)cc1)S2(=O)=O)c1ccc(Br)cc1 | inconclusive: 10 µM [inhibitor, single point] | – | –
CN1CC(=O)N(C2CCNC2)Cc2c1ncnc2N1CCC(c2ccccc2)CC1 (stereo not drawn) | inconclusive: 12.6 µM [inhibitor, single point] | – | –
O=C(O)c1ccc(-c2cccc(O)c2)cc1 | – | inconclusive: -65.8% [inhibitor] [at 44.1 µM] | –
COc1ccc(C2c3c(n(C)c4ccccc34)C(=O)N2CC(=O)Nc2ccc(Cl)cc2)cc1 (stereo not drawn) | inconclusive: 0.0355 µM [inhibitor, full curve, poor fit] | – | –
Cc1ccc(NC(=O)N2CCC(c3nc(CCOCC4CC4)no3)C2)cc1C (stereo not drawn) | – | inactive: -19.8% | –
CCOC(=O)c1c(C)oc2ncnc(NCCc3ccccc3)c12 | – | inactive: -6.13% | –
O=C(CCCc1ccccc1)N1CCC2(CC1)CN(c1ccncn1)CC2CO (stereo not drawn) | inconclusive: 4.47 µM [inhibitor, partial curve, poor fit] | – | –
O=C(C1CCCC1)N1Cc2ccccc2CC2(CCN(Cc3ccccn3)C2)C1 (stereo not drawn) | inconclusive: 7.08 µM [inhibitor, partial curve, poor fit] | – | –
O=C(Nc1ccc(Cl)cc1)Nc1ccc2n(c1=O)C[C@H]1C[C@@H]2CN(C(=O)c2ccc3ccccc3c2)C1 | inconclusive: 10 µM [inhibitor, single point] | – | –

SMILES | Potency | activity, negative = inhibition | outcome
CCN(CC)c1ccc(NS(=O)(=O)c2ccc3c(c2)CCCN3C(C)=O)c(C)c1 | inconclusive: 6.31 µM [inhibitor, single point] | – | –
O=c1[nH]c(N2CCOCC2)nc2c1CCN(Cc1cccc(Cl)c1)CC2 | – | inactive: 18.2% [at 5.79 µM] | –
C#C[C@H]1CN2CC[C@H]1C[C@@H]2COC(=O)Nc1cc(OC)cc(OC)c1 | inconclusive: 3.55 µM [inhibitor, full curve] | – | –
COc1ccc(C(=O)NC[C@H]2C[C@@H]3CCN2C[C@@H]3c2cc(C3CCCCC3)nn2C)cc1 | inconclusive: 10 µM [inhibitor, single point] | – | –
CCN(CC)CCN(C(=O)c1ccco1)c1nc2c(C)cccc2s1 | inconclusive: 17.8 µM [inhibitor, single point] | – | –
Cc1ccsc1-c1[nH]nc2ncc(-c3cccc(F)c3)nc12 | inconclusive: 15.8 µM [inhibitor, single point] | – | –
Cc1cncc(-c2ccccc2OCCN(C)C)c1 | inconclusive: 5.01 µM [inhibitor, partial curve] | – | –
O=C(NC1CCCCC1)c1ccc2c(c1)sc1nc(-c3ccccc3)cn12 | – | – | inactive
CC(=O)N1Cc2ccccc2CC2(CCCN2C)C1 (stereo not drawn) | inconclusive: 11.2 µM [inhibitor, single point] | – | –
CCc1ccc(Nc2cc(C)nc3nc(Cc4ccc(Cl)cc4)nn23)cc1 | inconclusive: 17.8 µM [inhibitor, single point] | – | –
CCCc1ccc(S(=O)(=O)N2CCCC(Cn3c(C)nc4cccnc43)C2)cc1 (stereo not drawn) | inconclusive: 3.55 µM [inhibitor, full curve] | – | –
CC(=O)c1cccc(NC(=O)O[C@H]2COCCN(c3nc4ccccc4o3)C2)c1 | – | – | inactive [at 44.1 µM]
COCC(=O)NC[C@H]1OC[C@@H](N(Cc2ccncc2)Cc2ccncc2)[C@@H]1O | – | inactive: 0.062% [at 44.1 µM] | –
CCc1cccc(NC(=O)N(C)CC2CCOCC2)c1 | – | inactive: -16.6% | –
Cc1cccc(NC(=O)CSc2nc3ccc(NC(=O)c4cccs4)cc3s2)c1 | inconclusive: 17.8 µM [inhibitor, single point] | – | –
COc1ccc(-c2noc(CCCC(=O)N3CCC(c4nc(C5CCOCC5)no4)C3)n2)cc1OC (stereo not drawn) | – | inactive: -0.59% | –
CC1CN(C(=O)N2CCC(C(=O)NC3CCCCCC3)CC2)c2cc(Cl)ccc2O1 (stereo not drawn) | inconclusive: 11.2 µM [inhibitor, single point] | – | –
Cc1ccc(NC(=O)Cn2c(=O)n(Cc3ccco3)c(=O)c3ccccc32)cc1 | inconclusive: 17.8 µM [inhibitor, single point] | – | –
CC(=O)N1CCC(N2CCOC[C@H]2c2ncc(-c3ccc(C(F)(F)F)cc3)[nH]2)CC1 | – | – | inactive [at 44.1 µM]
O=C(NCCc1ccc(Cl)cc1)c1nc(-c2ccc(F)cc2)c2ccccn12 | – | inactive: 10.8% | –
O=C(c1ccc2c(c1)OCCO2)N(Cc1cccnc1)c1nc2ccc(F)cc2s1 | inconclusive: 11.2 µM [inhibitor, single point] | – | –
